Reference: the supplement of paper PMC4967469

Compound: Cn1cc(C2=C(c3cn(C4CCN(Cc5ccccn5)CC4)c4ccccc34)C(=O)NC2=O)c2ccccc21 [LY317615]
Assay: Viability of human cancer cell lines after 72 h of drug (GDSC screen)
Settings: top dose inferred
Protocol: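 Human cancer cell lines in 384-well plates, medium with 10% serum, drug for 72 h over a 256-fold dose range (nine 2-fold or five 4-fold steps up to the top dose). Adherent lines were fixed and stained with the nucleic acid dye Syto60, suspension lines read with resazurin; signal relative to control wells, capped at 0 and 100%. One two-parameter sigmoid per drug and line, fitted in a mixed model over all curves with the slope shared within a line.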

| Cell Line | AUC | IC50 [µM] |
| --- | --- | --- |
| LU-135 (small cell lung carcinoma, suspension, top dose 20 µM) | 0.898 | 17.5 |
| LU-139 (small cell lung carcinoma, suspension, top dose 20 µM) | 0.785 | 11.3 |
| LU-165 (small cell lung carcinoma, suspension, top dose 20 µM) | 0.919 | > 20 |
| LXF-289 (lung adenocarcinoma, adherent, top dose 20 µM) | 0.753 | 6.58 |
| LoVo (large intestine, adherent, top dose 20 µM) | 0.987 | > 20 |
| M14 (melanoma, adherent, top dose 20 µM) | 0.952 | > 20 |
| M059J (glioma, adherent, top dose 20 µM) | 0.797 | 10.4 |
| MC116 (B-cell lymphoma, suspension, top dose 20 µM) | 0.595 | 2.11 |
| MC-CAR (haematopoietic neoplasm, suspension, top dose 20 µM) | 0.655 | 3.18 |
| MC-IXC (neuroblastoma, adherent, top dose 20 µM) | 0.804 | 7.03 |
| MDA-MB-157 (breast, adherent, top dose 20 µM) | 0.963 | > 20 |
| MDA-MB-175-VII (breast, adherent, top dose 20 µM) | 0.717 | 5.51 |
| MDA-MB-231 (breast, adherent, top dose 20 µM) | 0.986 | > 20 |
| MDA-MB-330 (breast, adherent, top dose 20 µM) | 0.6 | 2.45 |
| MDA-MB-361 (breast, adherent, top dose 20 µM) | 0.973 | > 20 |
| MDA-MB-415 (breast, adherent, top dose 20 µM) | 0.982 | > 20 |
| MDA-MB-436 (breast, adherent, top dose 20 µM) | 0.957 | > 20 |
| MDA-MB-453 (breast, adherent, top dose 20 µM) | 0.605 | 2.52 |
| MDA-MB-468 (breast, adherent, top dose 20 µM) | 0.941 | > 20 |
| MDST8 (large intestine, adherent, top dose 20 µM) | 0.936 | > 20 |
| ME-1 (acute myeloid leukaemia, suspension, top dose 20 µM) | 0.964 | > 20 |
| ME-180 (cervix, adherent, top dose 20 µM) | 0.439 | 0.844 |
| MEG-01 (chronic myeloid leukaemia, suspension, top dose 20 µM) | 0.708 | 4.62 |
| MEL-JUSO (melanoma, adherent, top dose 20 µM) | 0.639 | 3.18 |
| MES-SA (uterus, adherent, top dose 20 µM) | 0.823 | 9.52 |
| MFE-280 (endometrium, adherent, top dose 20 µM) | 0.943 | > 20 |
| MFE-296 (endometrium, adherent, top dose 20 µM) | 0.983 | > 20 |

| Cell Line | AUC | IC50 [µM] |
| --- | --- | --- |
| MFE-319 (endometrium, adherent, top dose 20 µM) | 0.963 | > 20 |
| MFH-ino (soft tissue, adherent, top dose 20 µM) | 0.977 | > 20 |
| MFM-223 (breast, adherent, top dose 20 µM) | 0.953 | > 20 |
| MG-63 (osteosarcoma, adherent, top dose 20 µM) | 0.984 | > 20 |
| MHH-ES-1 (Ewing sarcoma, adherent, top dose 20 µM) | 0.899 | > 20 |
| MHH-NB-11 (neuroblastoma, adherent, top dose 20 µM) | 0.92 | > 20 |
| MHH-PREB-1 (B-cell leukaemia, suspension, top dose 20 µM) | 0.883 | 17.6 |
| MIA-PaCa-2 (pancreas, adherent, top dose 20 µM) | 0.958 | > 20 |
| MKN1 (stomach, adherent, top dose 20 µM) | 0.804 | 10.7 |
| MKN28 (stomach, adherent, top dose 20 µM) | 0.935 | > 20 |
| MKN45 (stomach, adherent, top dose 20 µM) | 0.449 | 0.875 |
| ML-1 (thyroid, adherent, top dose 20 µM) | 0.907 | > 20 |
| ML-2 (acute myeloid leukaemia, suspension, top dose 20 µM) | 0.648 | 3.05 |
| MLMA (hairy cell leukaemia, semi-adherent, top dose 20 µM) | 0.794 | 9.33 |
| MMAC-SF (melanoma, adherent, top dose 20 µM) | 0.936 | > 20 |
| MN-60 (B-cell leukaemia, suspension, top dose 20 µM) | 0.841 | 14.8 |
| MOG-G-CCM (glioma, adherent, top dose 20 µM) | 0.769 | 8.84 |
| MOG-G-UVW (glioma, adherent, top dose 20 µM) | 0.85 | 14.6 |
| MOLM-13 (acute myeloid leukaemia, suspension, top dose 20 µM) | 0.439 | 0.859 |
| MOLP-8 (myeloma, suspension, top dose 20 µM) | 0.668 | 3.6 |
| MOLT-4 (lymphoblastic leukaemia, suspension, top dose 20 µM) | 0.513 | 1.34 |
| MOLT-13 (T-cell lymphoblastic leukaemia, suspension, top dose 20 µM) | 0.697 | 4.13 |
| MONO-MAC-6 (acute myeloid leukaemia, suspension, top dose 20 µM) | 0.726 | 5.72 |
| MPP-89 (mesothelioma, adherent, top dose 20 µM) | 0.964 | > 20 |
| MRK-nu-1 (breast, suspension, top dose 20 µM) | 0.988 | > 20 |
| MS751 (cervix, adherent, top dose 20 µM) | 0.96 | > 20 |
| MS-1 (small cell lung carcinoma, suspension, top dose 20 µM) | 0.933 | > 20 |

| Cell Line | AUC | IC50 [µM] |
| --- | --- | --- |
| MSTO-211H (mesothelioma, adherent, top dose 20 µM) | 0.991 | > 20 |
| MV-4-11 (leukaemia, suspension, top dose 20 µM) | 0.28 | 0.341 |
| MY-M12 (leukaemia, suspension, top dose 20 µM) | 0.485 | 1.13 |
| MZ1-PC (pancreas, adherent, top dose 20 µM) | 0.649 | 3.59 |
| MZ2-MEL (melanoma, adherent, top dose 20 µM) | 0.85 | 19.3 |
| MZ7-mel (melanoma, adherent, top dose 20 µM) | 0.739 | 6.22 |
| Mewo (melanoma, adherent, top dose 20 µM) | 0.979 | > 20 |
| Mo-T (hairy cell leukaemia, suspension, top dose 20 µM) | 0.805 | 10.3 |
| NALM-6 (B-cell leukaemia, suspension, top dose 20 µM) | 0.53 | 1.49 |
| NAMALWA (Burkitt lymphoma, suspension, top dose 20 µM) | 0.791 | 7.43 |
| NB5 (neuroblastoma, adherent, top dose 20 µM) | 0.973 | > 20 |
| NB6 (neuroblastoma, adherent, top dose 20 µM) | 0.948 | > 20 |
| NB7 (neuroblastoma, adherent, top dose 20 µM) | 0.834 | 13.9 |
| NB10 (neuroblastoma, adherent, top dose 20 µM) | 0.838 | 13.1 |
| NB12 (neuroblastoma, adherent, top dose 20 µM) | 0.826 | 18.2 |
| NB13 (neuroblastoma, adherent, top dose 20 µM) | 0.87 | 15.1 |
| NB14 (neuroblastoma, adherent, top dose 20 µM) | 0.973 | > 20 |
| NB17 (neuroblastoma, adherent, top dose 20 µM) | 0.984 | > 20 |
| NB69 (neuroblastoma, adherent, top dose 20 µM) | 0.595 | 2.2 |
| NB(TU)1-10 (neuroblastoma, adherent, top dose 20 µM) | 0.992 | > 20 |
| NB-4 (acute myeloid leukaemia, suspension, top dose 20 µM) | 0.581 | 2 |
| NCC021 (kidney, adherent, top dose 20 µM) | 0.983 | > 20 |
| NCI-H23 (lung adenocarcinoma, adherent, top dose 20 µM) | 0.685 | 4.09 |
| NCI-H28 (mesothelioma, adherent, top dose 20 µM) | 0.917 | > 20 |
| NCI-H64 (small cell lung carcinoma, suspension, top dose 20 µM) | 0.931 | 18.3 |
| NCI-H69 (small cell lung carcinoma, suspension, top dose 20 µM) | 0.932 | > 20 |

A lower IC50 marks a more sensitive line; where the fit passes the top or lowest dose, that dose stands as a limit. The AUC spans the tested range (256-fold, ending at the top dose) of the same fit; it is 1 without any effect and falls as sensitivity rises. The top dose, if marked as inferred, was calculated from the reported fits.
